This is an account of results in the BET-seq Pho4 binding data (Le et al. 2018).

Some of the results follow. The energies were worked out here from pooled read counts, against the library average; single values are noisy.

The target in the experiment is T1, Pho4 (S. cerevisiae) (UniProt P07270).
T1 sequence: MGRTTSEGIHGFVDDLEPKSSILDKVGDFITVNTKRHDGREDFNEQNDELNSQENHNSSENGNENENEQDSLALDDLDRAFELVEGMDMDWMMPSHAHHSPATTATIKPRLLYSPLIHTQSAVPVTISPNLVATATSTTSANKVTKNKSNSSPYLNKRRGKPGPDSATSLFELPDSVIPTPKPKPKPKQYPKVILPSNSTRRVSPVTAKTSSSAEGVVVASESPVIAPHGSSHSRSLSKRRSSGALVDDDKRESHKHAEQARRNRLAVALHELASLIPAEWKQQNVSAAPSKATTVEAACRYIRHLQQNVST
The experiment in a line: relative binding free energy (BET-seq); higher = weaker binding. The note with it: reference: library average.
On to TATGCCACGTGTGTAA, for which the “relative binding free energy” value was -0.07 kcal/mol.
In the case of GGTGACACGTGGTGGC it was 0 kcal/mol; in that of GGGCTCACGTGGGACT, 0.37 kcal/mol; in that of AGGGCCACGTGTGCGA, 0.01 kcal/mol.
In the case of GGGAACACGTGTGTTT, the “relative binding free energy” value was 0.06 kcal/mol.
On to GTATTCACGTGAATGA, for which the “relative binding free energy” value turned out to be 0.6 kcal/mol.
In the case of AGTCGCACGTGTGTTT it was 0 kcal/mol.
In the case of AGGTACACGTGTTTTG it was 0.01 kcal/mol; in that of GTTATCACGTGTATAC, 0.26 kcal/mol.
Regarding ATGTTCACGTGTCAAG, the “relative binding free energy” value was 0.23 kcal/mol.
As for TTTAACACGTGTATGG, the figure is 0.04 kcal/mol; as for ACATTCACGTGGGGGG, 0.17 kcal/mol; as for GACTACACGTGGGGGG, 0.05 kcal/mol.
As for TTTTTCACGTGGGCCG, the figure is 0.21 kcal/mol; as for TCTATCACGTGTTGAT, 0.13 kcal/mol; as for AGGGTCACGTGGCTTC, 0.12 kcal/mol.
Consider GGGTCCACGTGCTGGT, for which the “relative binding free energy” value was -0.03 kcal/mol.
As for GTTAGCACGTGTAGCG, the figure is 0.05 kcal/mol; as for AGTGTCACGTGAGGTT, 0.19 kcal/mol.
Take TTGGGCACGTGCTGCG: the “relative binding free energy” value was -0.27 kcal/mol.
CTGGGCACGTGTTTAT: the “relative binding free energy” value was -0.14 kcal/mol.
Turning to TATTTCACGTGTAGAT, the “relative binding free energy” value stood at 0.45 kcal/mol.
Turning to AGTGACACGTGGTAGA, the “relative binding free energy” value was determined as 0.01 kcal/mol.
On to ATATTCACGTGCGTAA, for which the “relative binding free energy” value came to 0.22 kcal/mol.
Turning to GGGGTCACGTGATTAA, the “relative binding free energy” value was 0.23 kcal/mol.
On to TTTGACACGTGGTACG, for which the “relative binding free energy” value is -0.11 kcal/mol.
Take GGCCTCACGTGGGGGG: the “relative binding free energy” value turned out to be 0.12 kcal/mol.
With CTGTGCACGTGTGGTA, the “relative binding free energy” value was -0.07 kcal/mol.
Consider GGAATCACGTGGTGTC, for which the “relative binding free energy” value is 0.11 kcal/mol.
Take TCGTTCACGTGAGTAG: the “relative binding free energy” value came out at 0.29 kcal/mol.
In the case of CATTGCACGTGGGGCT it was -0.13 kcal/mol.
Take AATACCACGTGTTAGG: the “relative binding free energy” value turned out to be 0.1 kcal/mol.
As for AGTATCACGTGGGTCA, the figure is 0.09 kcal/mol; as for GTGGTCACGTGAGAGG, 0.35 kcal/mol.
In the case of GCATACACGTGGTGGA it was 0.05 kcal/mol; in that of ACTGGCACGTGATAGG, -0.12 kcal/mol.
As for GGATACACGTGAGTGA, the figure is 0.22 kcal/mol; as for TAATGCACGTGTTCGG, -0.07 kcal/mol.
As for GTATTCACGTGTAATT, the “relative binding free energy” value was determined as 0.32 kcal/mol.
Take CAAGACACGTGGGTTG: the “relative binding free energy” value was -0.12 kcal/mol.
As for GCGGTCACGTGCTGTT, the figure is 0.07 kcal/mol; as for AGGTCCACGTGTTGGA, 0.21 kcal/mol.
For GCGCACACGTGGGGTT, the “relative binding free energy” value is 0.01 kcal/mol.
In the case of TGAAGCACGTGTAATG it was -0.05 kcal/mol; in that of TGGACCACGTGGAGTG, -0.07 kcal/mol; in that of TTGTACACGTGTAGGC, -0.06 kcal/mol.
As for AGAGGCACGTGGTAGC, the figure is -0.17 kcal/mol.
In the case of GTAATCACGTGCAGGG it was 0.33 kcal/mol.
With GTTTACACGTGTTACT, the “relative binding free energy” value was determined as 0.16 kcal/mol.
With TTCTGCACGTGTTTTA, the “relative binding free energy” value is 0 kcal/mol.
As for ATTTACACGTGAGGGG, the “relative binding free energy” value is 0.21 kcal/mol.
Consider TGAGGCACGTGTGACT, for which the “relative binding free energy” value is 0.06 kcal/mol.
Regarding ATGTTCACGTGGCAAA, the “relative binding free energy” value amounted to 0.25 kcal/mol.
Take ATGATCACGTGGAGTC: the “relative binding free energy” value was determined as 0.19 kcal/mol.
Turning to TGGCACACGTGTGGTA, the “relative binding free energy” value amounted to 0.17 kcal/mol.
Regarding TGTATCACGTGGCTAT, the “relative binding free energy” value amounted to 0 kcal/mol.
For the sequence ATGGGCACGTGCACGG, the “relative binding free energy” value was -0.25 kcal/mol.
On to TATATCACGTGAGTTT, for which the “relative binding free energy” value worked out at 0.38 kcal/mol.
Consider GATTTCACGTGTCGTG, for which the “relative binding free energy” value came to 0.33 kcal/mol.
As for GCGTTCACGTGAAGGG, the figure is 0.37 kcal/mol; as for AAGGACACGTGATGGC, 0.24 kcal/mol.
As for TTGGTCACGTGAGTGG, the figure is 0.4 kcal/mol; as for GTTGTCACGTGCAGTG, 0.04 kcal/mol; as for AGGTTCACGTGGACAT, 0.16 kcal/mol.
As for TTCGTCACGTGTGATG, the figure is 0.18 kcal/mol; as for CTGGTCACGTGCTTGT, 0.01 kcal/mol.
As to AAGAGCACGTGGTAAT, the “relative binding free energy” value is -0.05 kcal/mol.
With GGTTTCACGTGTATGA, the “relative binding free energy” value was 0.27 kcal/mol.
For TTTGGCACGTGCTGCA, the “relative binding free energy” value was -0.13 kcal/mol.
GACATCACGTGGGGGA: the “relative binding free energy” value is 0.09 kcal/mol.
ATCATCACGTGTCGTG: the “relative binding free energy” value turned out to be 0.24 kcal/mol.
In the case of TCTGTCACGTGATTAT, the “relative binding free energy” value came to 0.09 kcal/mol.
Consider GTGTACACGTGATATG, for which the “relative binding free energy” value is -0.06 kcal/mol.
With GTCACCACGTGGTGGG, the “relative binding free energy” value turned out to be 0 kcal/mol.
For the sequence GTACTCACGTGGATGT, the “relative binding free energy” value was 0.28 kcal/mol.
As for GGGTCCACGTGACGTG, the figure is 0.1 kcal/mol; as for GGGTACACGTGATCAG, 0.38 kcal/mol.
In the case of GGTAACACGTGGACTG it was 0.02 kcal/mol; in that of GGGATCACGTGGGTGG, 0.08 kcal/mol; in that of ACCGGCACGTGTTGGG, -0.04 kcal/mol.
As for ATAGGCACGTGGGTGT, the “relative binding free energy” value is -0.23 kcal/mol.
As for CGGGCCACGTGAGAGG, the figure is 0.05 kcal/mol; as for TTGCGCACGTGTGGCT, 0.02 kcal/mol.
On to GATGGCACGTGGGAAG, for which the “relative binding free energy” value was -0.14 kcal/mol.
CCGGGCACGTGTATGG: the “relative binding free energy” value is -0.09 kcal/mol.
ATTGGCACGTGGATTG: the “relative binding free energy” value is -0.18 kcal/mol.
As to AAGGACACGTGTGATA, the “relative binding free energy” value is 0.23 kcal/mol.
ATTTTCACGTGAGTTA: the “relative binding free energy” value came to 0.26 kcal/mol.
As for TAACGCACGTGGTCGG, the “relative binding free energy” value is -0.13 kcal/mol.
CCTGGCACGTGGAGGG: the “relative binding free energy” value was -0.18 kcal/mol.
Regarding TAAGTCACGTGTCTGG, the “relative binding free energy” value is 0.12 kcal/mol.
In the case of TAGTACACGTGGGAAT it was -0.05 kcal/mol; in that of TCTTTCACGTGATAGT, 0.19 kcal/mol; in that of TCAGTCACGTGCATGT, 0.09 kcal/mol.
For TGATGCACGTGATTGC, the “relative binding free energy” value was 0.11 kcal/mol.
In the case of ACTGTCACGTGTAAGG, the “relative binding free energy” value is 0.15 kcal/mol.
Consider TCGTCCACGTGGGTGT, for which the “relative binding free energy” value is -0.08 kcal/mol.
On to TAGTGCACGTGGTTCT, for which the “relative binding free energy” value was -0.2 kcal/mol.
For AGCGGCACGTGGCGTG, the “relative binding free energy” value is -0.11 kcal/mol.
As for GGAAGCACGTGGGACG, the “relative binding free energy” value was -0.09 kcal/mol.
As for TGACGCACGTGTGGTG, the figure is -0.08 kcal/mol.
Turning to CTGGTCACGTGGATAG, the “relative binding free energy” value is 0.1 kcal/mol.
In the case of GAAAGCACGTGGTGCG it was -0.01 kcal/mol; in that of AAGGGCACGTGTGATA, -0.09 kcal/mol.
In the case of TGGGACACGTGTCGAG it was -0.01 kcal/mol; in that of AAGTTCACGTGACTGG, 0.39 kcal/mol; in that of GGGGTCACGTGTGCAA, 0.13 kcal/mol.
In the case of TGAGGCACGTGACATG it was -0.05 kcal/mol; in that of TCTGGCACGTGCGTGT, -0.28 kcal/mol; in that of GTGATCACGTGATGCT, 0.25 kcal/mol.
Take GCGGGCACGTGGCGAG: the “relative binding free energy” value is -0.12 kcal/mol.
Take TCATTCACGTGTGGGC: the “relative binding free energy” value was found to be 0.1 kcal/mol.
In the case of GATTTCACGTGGGAGT, the “relative binding free energy” value is 0.3 kcal/mol.
In the case of GAGCTCACGTGTTAGG it was 0.31 kcal/mol.
With AGTTACACGTGTGATA, the “relative binding free energy” value stood at 0.11 kcal/mol.
